# Assay results taken from patent US20060263299A1, “Effect of substances on sexual function” (priority 2005, published 2006).
# Legend:
# [1] = system: male Sprague-Dawley rats; test: Reversal of fluoxetine-induced deficits in non-contact penile erections by co-administered agents; format: in vivo, rat
# Description: On the day of behavioral testing, antidepressants were administered intraperitoneally (i.p.) as one hour pretreatments. For reversal experiments, apomorphine (Sigma; St. Louis, Mo.) was dissolved in 0.9% sterile saline vehicle and injected subcutaneously in a volume of 1 ml/kg. […] 17B-estradiol benzoate and progesterone were purchased from Sigma (St. Louis, Mo.).
# Data are presented as group means±sem. For statistical analysis, data was subjected to one way analysis of variance (ANOVA) with a least significant difference (LSD) post-hoc test as appropriate. Statistical significance was achieved when p<0.05.
# To determine the effects of female stimuli on non-contact penile erections, sexually receptive females were brought into the testing room one hour prior to the start of behavioral testing in order to provide female visual, olfactory, and auditory stimuli for males. The testing arena for observing non-contact penile erections in male rats consisted of an empty rat size Plexiglas cage (11×10 inches) containing no bedding, with an aerated plastic lid and a total ceiling height of 12 inches. […] A penile erection consisted of observation of the male rat in a hunched position grasping the penis with the forepaws and followed by a series of pelvic thrusts. The number of penile erections were quantified over a 30 minute observation session.
# In a similar study, the ability of additional substances to reverse (or at least partially reverse) the effects of antidepressant-induced sexual dysfunction was evaluated. Sildenafil citrate (available as VIAGRA from Pfizer Inc. of New York, N.Y.), yohimbine and dopamine agonists were studied in the foregoing manner.
# [2] = system: male Sprague-Dawley rats; test: Non-contact penile erections in sexually experienced male rats in the presence of receptive females after antidepressant treatment; format: in vivo, rat
# Description: The doses of the antidepressants evaluated in the present studies were selected based on the reported efficacious dose ranges of these drugs in preclinical models predicting antidepressant-like activity in rats including olfacoty bulbectomy studies and forced swim test experiments (Reneric et al., 1998; West et al., 1998; Joly and Sanger, 1986). […] On the day of behavioral testing, antidepressants were administered intraperitoneally (i.p.) as one hour pretreatments. For reversal experiments, apomorphine (Sigma; St. Louis, Mo.) was dissolved in 0.9% sterile saline vehicle and injected subcutaneously in a volume of 1 ml/kg. […] 17B-estradiol benzoate and progesterone were purchased from Sigma (St. Louis, Mo.).
# Data are presented as group means±sem. For statistical analysis, data was subjected to one way analysis of variance (ANOVA) with a least significant difference (LSD) post-hoc test as appropriate. Statistical significance was achieved when p<0.05. […]
# To determine the effects of female stimuli on non-contact penile erections, sexually receptive females were brought into the testing room one hour prior to the start of behavioral testing in order to provide female visual, olfactory, and auditory stimuli for males. […] The number of penile erections were quantified over a 30 minute observation session.
# [3] = system: patients; settings: clinical studies from the literature; cited from earlier work
compound,measurement,setting,value
CN1CCc2cccc3c2[C@H]1Cc1ccc(O)c(O)c1-3 [apomorphine],mean number of non-contact penile erections,"[1]; acute apomorphine 0.1 mg/kg s.c. co-administered with chronic (14 day) saline vehicle i.p., mean+sem",4.13+0.35
same,number of non-contact penile erections compared with acute vehicle+chronic vehicle treated subjects (in words),[1]; acute apomorphine 0.03 or 0.1 mg/kg s.c. with chronic saline vehicle,not different from acute vehicle+chronic vehicle treated subjects
"CC(NC(C)(C)C)C(=O)c1cccc(Cl)c1 (stereo not shown) [bupropion, (.+−.)-1-(3-chlorophenyl)-2-[(1,1-dimethylethyl)amino]-1-propanone]",effect on penile erections (in words),[2]; acute treatment,significant reduction in the number of penile erections
same,patients reporting sexual dysfunction / impairment in sexual function,[3],14%
CNCCCN1c2ccccc2CCc2ccccc21 [desipramine],effect on number of penile erections over time (in words),"[2]; acute, subchronic and chronic treatment",reduction in the number penile erections acutely and consistently over time
"CNCCC(Oc1ccc(C(F)(F)F)cc1)c1ccccc1 (stereo not shown) [fluoxetine, N-methyl-3-(p-trifluoromethylphenoxy)-3-phenylpropylamine]",patients reporting sexual dysfunction / impairment in sexual function,[3],73%
COC(=O)[C@@H]1[C@H]2C[C@H]3c4[nH]c5ccccc5c4CCN3C[C@@H]2CC[C@@H]1O [yohimbine],"ability to reverse the effects of fluoxetine on non-contact penile erections (in words, FIG. 7)",[1]; co-administered with fluoxetine (over 14 days),reverse to effects of the fluoxetine is demonstrated
